Test results taken from PubChem BioAssay AID651820 (National Center for Advancing Translational Sciences (NCATS), 2012).
Among all 340,000 compounds or so, about 12,000 (3.5%) were called active. This list was built around the results that the source calls inconclusive (neither active nor inactive); the mix of calls is not that of the screen. Calls come from the whole dose curve; as a rule, active = well fitted inhibition curve with a large enough effect; inconclusive = small, poorly fitted or top-dose-only effect, or another doubt; inactive = no such curve, though single readings can be large or run the other way. No potency is given beside an inconclusive call; the fits are too rough.

Experiment: qHTS Assay for Inhibitors of Hepatitis C Virus (HCV)
Conditions: Huh7.5.1 HCVcc-Cre (HCVcc is cell-culture hepatitis C virus) infection, luciferase reporter, 44 h; activity change, negative = inhibition: at 41.8 µM (top of the series) unless noted
How it was run: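 Reporter virus HCVcc-Cre (~0.5 moi) infects cells exposed to compound; seeding density 1,000 cells/well with 4 h settling beforehand. Luminescence, 15 sec read, taken 44 h post-infection following a 15 min RT substrate incubation.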
% is set by controls: 0 for no effect and ±100 for the full control effect; potency is the fitted concentration of half-maximal effect; tags give direction and shape of the fitted curve.

Structure (SMILES) | Potency | activity change, negative = inhibition
CN(Cc1ccccc1F)C(=O)CN1CCN(S(=O)(=O)c2ccc3c(c2)OCCCO3)CC1 | inconclusive [inhibitor, single point] | 
Cc1ccc(NC(=O)CN(C)S(=O)(=O)c2cccs2)c(Br)c1 | inactive | 
CN(CC(O)COc1ccc(OCC(O)CN(C)C2CCCCC2)cc1)C1CCCCC1 (stereo unspecified) | active: 15.8 µM | 
CCOc1ccc(CCNC(=O)c2cccc(S(=O)(=O)N3CCCC3)c2)cc1OCC | inconclusive [inhibitor, partial curve] | 
O=[N+]([O-])c1ccc(NCCOc2ccccc2Cl)nc1 |  | inconclusive: -34.6% [inhibitor]
O=C(c1ccc(N2CCC3(CC2)OCCO3)c([N+](=O)[O-])c1)N1CCOCC1 | inactive | 
CC(=O)c1cccc(Nc2nc(-c3cccnc3)cs2)c1 | inconclusive [inhibitor, single point] | 
CCc1sc(C(=O)Nc2nc(-c3ccccn3)cs2)cc1C | active: 17.8 µM | 
Cc1ccc(Nc2nc3ccccc3s2)c(C)c1 | inactive | 
Cc1ccc(O)c(NS(=O)(=O)c2cccc3nsnc23)c1 | inactive | 
COc1cccc(NC(=S)N/N=C2\CC3CCC2(C)C3(C)C)c1 (stereo unspecified) | inconclusive [inhibitor, single point] | 
COc1cc(C)ccc1OCCOc1cc(C)ccc1Cl | inconclusive [inhibitor, partial curve] | 
CCOc1cc(C(N)=O)cc(Cl)c1OCc1ccccc1 | active: 12.6 µM | 
COc1ccc(OCC(=O)Nc2ccc3c(c2)nc(CCN2CCOCC2)n3C)cc1 | inactive | 
CCOc1ccc(NC(=O)CCC(=O)Nc2cc(OC)c(NC(=O)c3ccco3)cc2OC)cc1 | inconclusive [inhibitor, partial curve] | 
CCN(CC)S(=O)(=O)c1ccc(NC(=O)[C@@H](NC(=O)c2cc(OC)cc(OC)c2)C(C)C)cc1 | inconclusive [inhibitor, partial curve] | 
CN(C)C1=NCCN1CCCC1CCCCC1 | inconclusive [inhibitor, partial curve] | 
C#Cc1ccc([C@@H]2C=C(C(=O)N3CCN(Cc4ccccc4)CC3)O[C@H](OCC)[C@H]2CCCO)cc1 | inconclusive [inhibitor, single point] | 
Cc1ccc(C)c2c1c1ccccc1n2C |  | inconclusive: -70.6% [inhibitor]
COc1c(NC(C)=O)c2ccccc2c2ccccc12 | inconclusive [inhibitor, single point] | 
CCCCOC(=O)c1ccc(NC(=O)CN2C(=O)NC3(CCCCCC3)C2=O)cc1 | inconclusive [inhibitor, single point] | 
CC(=O)c1ccc(NC(=O)Cc2ccsc2)cc1 | inactive | 
Cc1cc(Cl)ccc1NC(=S)N1CCN(Cc2ccccc2)CC1 | inconclusive [inhibitor, single point] | 
Cc1ccc(NC(=S)N2CCCC2)cc1 | inconclusive [inhibitor, single point] | 

Structure (SMILES) | Potency | activity change, negative = inhibition
Oc1ccc(-c2csc(Nc3cccnc3)n2)cc1 | inconclusive [inhibitor, partial curve, poor fit] | 
CCc1nc2ccc(C(=O)NCCc3ccccc3OC)cc2nc1CC | inconclusive [inhibitor, partial curve] | 
COc1ccc(C2=Nn3c(nnc3-c3cccnc3)SC2)cc1OC | inconclusive [inhibitor, partial curve, poor fit] | 
Cc1cc(NC(=O)c2ccc(F)cc2F)n(-c2nc3ccccc3[nH]2)n1 | inconclusive [inhibitor, full curve, poor fit] | 
CC1Oc2ccccc2N(CC(=O)NCc2ccc3c(c2)OCO3)C1=O (stereo unspecified) | inactive | 
COc1ccccc1Oc1ccc(S(=O)(=O)Nc2cccnc2)cc1 | inconclusive [inhibitor, single point] | 
CC(OC(=O)CCN=C1NS(=O)(=O)c2ccccc21)C(=O)Nc1ccc(F)cc1 (stereo unspecified) | inconclusive [inhibitor, partial curve] | 
CC(=O)c1ccc(NC(=O)CSc2nc3ccccc3c(=O)n2CCCN2CCOCC2)cc1 | inactive | 
COc1cc(=O)n(C)c2ccccc12 | inactive | 
S=C1NC(C23CC4CC(CC(C4)C2)C3)=CC(c2ccc3c(c2)OCO3)N1 (stereo unspecified) | inconclusive [inhibitor, single point] | 
COc1ccc(-n2nc(C(=O)NCC(=O)NCc3ccc(F)cc3)c3ccccc3c2=O)cc1OC | active: 12.6 µM | 
COc1ccc(CNC(=O)CSc2nnnn2Cc2ccccc2)cc1 | inconclusive [inhibitor, single point] | 
Cc1ccc(NC(=O)CC2SC3=NCCCN3C2=O)c(C)c1 (stereo unspecified) | inactive | 
COc1cc(C)c(CNCCc2c[nH]c3ccccc23)cc1C | inconclusive [inhibitor, single point] | 
COC(=O)c1cc2c(s1)-c1ccccc1CC2 | inconclusive [inhibitor, single point] | 
Cc1ccc(S(=O)(=O)N2CCCCC2)cc1NC(=O)Cc1c[nH]c2ccccc12 | inconclusive [inhibitor, single point] | 
Cc1ccc(N(CC(=O)NCc2ccccc2)C(=O)c2csnn2)cc1 | inactive | 
CCOC(=O)C1CCN(c2c(NCc3ccc(C(=O)NC4CCCC4)cc3)c(=O)c2=O)CC1 | inconclusive [inhibitor, full curve] | 
N#Cc1c(N)nc2c(c1N)CC(CO)O2 (stereo unspecified) | inactive | 
Cc1ccc(-c2cc(C(=O)NNC(=O)c3csc(N4CCOCC4)n3)c3ccccc3n2)cc1 | inconclusive [inhibitor, partial curve] | 
COc1ncnc2c1NC1=C(S2)C(=NCCC(=O)O)CC(C)(C)C1 | inactive | 
CCOC(=O)c1cnc(-n2cc(C)cn2)nc1Nc1ccccc1OC | inconclusive [inhibitor, full curve, poor fit] | 
CN(c1ccccc1)S(=O)(=O)c1cccc(NC(=O)CSc2nccc(=O)[nH]2)c1 | inactive | 
CCC(C)(C)NC(=O)CN(CCc1cccc(C)c1)C(=O)c1csnn1 | inactive | 

Structure (SMILES) | Potency | activity change, negative = inhibition
C#CCOCCOCCOCCNc1nc(N2CCN(C(=O)CCCCCCCCCCNC(=O)[C@H](CCCCN)n3cc(C)nn3)CC2)nc(N2CCN(C(=O)CCCCCCCCCCNC(=O)[C@@H]([C@H](C)CC)n3cc(CCCCCN)nn3)CC2)n1 | active: 22.4 µM | 
COc1ccc(/C=C/C(=O)Nc2cc(C(F)(F)F)ccc2Cl)cc1 | inactive | 
Clc1cccc(Cl)c1Cn1c(-c2cccnc2Cl)nc2ccccc21 | inconclusive [inhibitor, single point] | 
CN(c1ccc(-c2csc(NC(=O)C3CC(=O)N(Cc4ccco4)C3)n2)cc1)S(C)(=O)=O (stereo unspecified) | inconclusive [inhibitor, partial curve] | 
C/C(=C\c1ccccc1)C(=O)NC1CCSC1=O (stereo unspecified) | inactive | 
CCC(=NCCc1c[nH]c2ccccc12)c1c(O)n(C)c(=O)n(C)c1=O | active: 4.47 µM | 
CCn1c(CCCOc2ccc(Cl)cc2Cl)n[nH]c1=S | inconclusive [inhibitor, single point] | 
C=CCNc1nc(N)c(C(=O)c2ccc3c(c2)OCO3)s1 | inconclusive [inhibitor, single point] | 
CCOC(=O)c1c(-c2ccccc2)cn2ccccc12 | inconclusive [inhibitor, partial curve] | 
O=C(CSCc1ccc(Br)cc1)NC1CC1 | inactive | 
O=C(/C=C/c1cccc([N+](=O)[O-])c1)Nc1cccc(NC(=O)c2ccco2)c1 | inconclusive [inhibitor, partial curve] | 
COc1ccc(CCNc2nc(-c3cccnc3)nc3ccccc23)cc1OC | active: 10 µM | 
COCCCN(C(=S)Nc1cc(Cl)cc(Cl)c1)C(C)c1ccccn1 (stereo unspecified) | inconclusive [inhibitor, single point] | 
COc1ccccc1S(=O)Cc1ccc(C(=O)NCCc2ccc(Cl)cc2)o1 (stereo unspecified) | inconclusive [inhibitor, single point] | 
Cc1cc(C)c(NC(=O)Cn2c(=O)c3cccn3c3ccccc32)c(C)c1 | inactive | 
CCn1c(=NC(=O)C2COc3ccccc3O2)sc2c(C)ccc(OC)c21 (stereo unspecified) | inconclusive [inhibitor, full curve] | 
CC(=O)Nc1ccc(NC(=O)C2CCN(c3ccc(C(F)(F)F)cn3)CC2)cc1 | active: 12.6 µM | 
CCC(=O)N1N=C(c2ccc(NS(=O)(=O)c3ccccc3)cc2)CC1c1ccco1 (stereo unspecified) | active: 11.2 µM | 
O=C(N/N=C/c1c[nH]c2ccccc12)c1ccn(Cc2ccc(Cl)cc2Cl)n1 | inconclusive [inhibitor, single point] | 
Cc1ccc2cccc(Oc3ncnc4scc(-c5ccccc5)c34)c2n1 | inconclusive [inhibitor, partial curve] | 
O=C1CC[C@@H]2C[C@@]3(C[C@@H]4CCN1[C@H]24)Nc1cc([N+](=O)[O-])ccc1NC3=NCc1ccccc1 | inconclusive [inhibitor, single point] | 
CCCCN(C)C(=O)CCC(=O)Nc1ccc2nc(N3CCOCC3)cc(C)c2c1 | inconclusive [inhibitor, full curve, poor fit] | 
Cc1cccc2cc(C#N)c(NCCNC(=O)COc3ccccc3)nc12 | inconclusive [inhibitor, single point] | 
